Several values for one entry are separate records, joined by “and”; a condition that tells them apart may be missing. Identical values can stand only once. Hit rate of the full screen: of about 130,000 compounds, about 1,900 (1.5%) were called active. Inconclusive means that the source gave no clear call. Such entries were picked first, then a sample of the others. Calls come from the whole dose curve; as a rule, active = well fitted cell-killing curve with a large enough effect; inconclusive = small, poorly fitted or top-dose-only effect; inactive = no such curve, though single readings can be large or run the other way. Potencies of inconclusive entries are doubtful fits and often do not repeat.
Assay: qHTS Screen for Compounds that Selectively Target Cancer Cells with p53 Mutations: Cytotoxicity of p53ts Cells at the Nonpermissive Temperature; note: nearly all actives have a fitted effect of over 55% in size
Settings: H1299-p53A138V viability at 39C, ATP luminescence, 24 h; activity change, negative = cell killing: at 46.1 µM (top of the series)
% is set by controls: 0 for no effect and ±100 for the full control effect; potency is the fitted concentration of half-maximal effect; tags give direction and shape of the fitted curve.

Compound | Potency | activity change, negative = cell killing
Cc1ccc(C)c(CN2CCC(CNC(=O)Nc3ccc(Br)cc3F)CC2)c1 | inconclusive: 20 µM [cytotoxic, single point] | 
O=C(Nc1c(C(=O)Nc2ccc(F)cc2)oc2ccccc12)c1cc2ccccc2o1 | inconclusive: 15.8 µM [cytotoxic, partial curve, poor fit] | 
Cn1ccc2cc3c(cc21)CCN3C(=O)Nc1cccnc1 | active: 10 µM | 
CC(=O)Nc1ccc(C(=O)CCl)cc1 | inconclusive: 31.6 µM [cytotoxic, single point] | 
c1ccc(-c2noc(-c3ccc4c(c3)OCO4)n2)nc1 | active: 1 µM | 
COc1ccc(Cn2c(=O)c3cccnc3n(CC(=O)Nc3ccc(C)c(F)c3)c2=O)cc1 | inconclusive: 10 µM [cytotoxic, partial curve] | 
Cc1ccc(-c2nc3c4ccccc4[nH]c(=O)n3n2)cc1 | inconclusive: 20 µM [cytotoxic, partial curve] | 
CCc1ccc(NC(=O)Cn2nc3c4ccccc4n(Cc4ccccc4)cc-3c2=O)cc1 | inconclusive: 20 µM [cytotoxic, partial curve, poor fit] | 
C[C@@H]1O[C@@H](n2cc(F)c(=O)[nH]c2=O)[C@H](O)[C@@H]1O | inactive | 
O=S(=O)(Nc1ccc2nc(-c3ccco3)[nH]c2c1)c1ccccc1 | inconclusive: 12.6 µM [cytotoxic, partial curve] | 
COc1cc(OC)c(NC2(c3ccccc3)C(=O)c3ccccc3C2=O)cc1Cl | inconclusive: 0.005 µM [cytotoxic, full curve, poor fit] | 
Nc1c(C(=O)Nc2ccc(OC(F)(F)F)cc2)sc2nc(-c3ccncc3)ccc12 | inconclusive: 14.1 µM [cytotoxic, single point] | 
CCOc1ccccc1-c1noc(CSc2nnc(-c3ccccc3)n2-c2ccc(F)cc2)n1 | inactive | 
Cc1c(C(=O)Nc2ccc(C(=O)O)cc2)nnn1-c1ccccc1 | inconclusive: 12.6 µM [cytotoxic, partial curve] | 
Cc1c(Cl)cccc1NC(=O)c1ccc2c(c1)CCN2S(=O)(=O)c1ccccc1 | inconclusive: 2.51 µM [cytotoxic, partial curve, poor fit] | 
O=C(Nc1ccc2c(c1)nc1n2CCOC1)c1ccco1 | inconclusive: 6.31 µM [cytotoxic, partial curve] | 
CN(C)CCNc1ncnc2c1cnn2-c1cccc(Cl)c1 | inconclusive: 15.8 µM [cytotoxic, partial curve, poor fit] | 
O=C(Nc1cccc(Cl)c1Cl)c1cc(S(=O)(=O)NCc2ccc3c(c2)OCO3)ccc1F | inconclusive: 12.6 µM [cytotoxic, partial curve] | 
CCC1CN(C(=O)N2CCC(C(=O)Nc3ccccc3F)CC2)c2ccccc2O1 (stereo not given) | inconclusive: 20 µM [cytotoxic, single point] | 
Cc1cc(C2=NNC(=NC3CC3)SC2)c(C)n1-c1ccccc1 | active: 10 µM | 
COc1ccccc1CNC(=O)c1ccc2nc(N3CCCCC3)sc2c1 |  | inconclusive: -34.3% [cytotoxic]
COc1cccc(NC(=O)C(=O)NCC(c2ccc3c(c2)OCO3)N2CCN(C)CC2)c1 (stereo not given) | inconclusive: 25.1 µM [cytotoxic, partial curve, poor fit] | 

Compound | Potency | activity change, negative = cell killing
Cc1cccc(NC(=O)CSc2ccc(-c3ccccn3)nn2)c1 | inconclusive: 5.01 µM [cytotoxic, full curve, poor fit] | 
CCOC(=O)c1ccc(N2C(=O)c3n[nH]c(-c4ccco4)c3C2c2ccc(C)cc2)cc1 (stereo not given) | inconclusive: 15.8 µM [cytotoxic, single point] | 
COC(=O)c1ccccc1NC(=O)c1noc2c1CCCC2 | inconclusive: 10 µM [cytotoxic, partial curve] | 
O=C(NCCc1ccccc1Cl)c1sc2ncccc2c1-n1cccc1 | inactive | 
COCCCN1C(=O)c2[nH]nc(-c3ccccc3O)c2C1c1ccc(Cl)cc1 (stereo not given) | inactive | 
CCOC(=O)c1ccc(NC(=O)CSc2c3c(nc4cc(Cl)ccc24)CCCC3)cc1 | inconclusive: 0.0794 µM [cytotoxic, full curve] | 
Cc1ccc(C(c2cccc(Br)c2)c2c(C)[nH]c3ccccc23)s1 (stereo not given) | inconclusive: 20 µM [cytotoxic, single point] | 
CCc1ccc(CNC(=O)CN2C(=O)CSc3c2c(C)nn3-c2ccccc2)cc1 | inconclusive: 12.6 µM [cytotoxic, partial curve] | 
Cc1ccc(C)c(CN2C(=O)c3ccccc3S(=O)(=O)c3ccc(C(=O)NCCCN4CCCC(C)C4)cc32)c1 (stereo not given) | inconclusive: 31.6 µM [cytotoxic, single point] | 
N#CCCn1c(=O)c(-c2ccc(F)cc2)nc2cnc(Oc3ccccc3)nc21 | inactive | 
CCOC(=O)c1cc(-c2ccc(C)cc2)n(CC(=O)Nc2ccccc2F)c1C | inconclusive: 0.005 µM [cytotoxic, full curve, poor fit] | 
Cc1ccccc1N=C1Nc2ccccc2CS1 | inconclusive: 10 µM [cytotoxic, partial curve] | 
O=C(Nc1cccc(S(=O)(=O)Nc2ccc(Cl)cc2)c1)c1cc2c(s1)CCCC2 | inconclusive: 35.5 µM [cytotoxic, partial curve] | 
CN1CCN(c2ncc3nc(-c4ccc(F)cc4)c(=O)n(C4CC4)c3n2)CC1 | inactive | 
Cc1ccc(C)c(Cn2c3ccccc3c3cnn(CC(=O)NC4CCC(C)CC4)c(=O)c32)c1 (stereo not given) | inconclusive: 7.94 µM [cytotoxic, partial curve] | 
CC(C)C(=O)Nc1cccc(C(=O)Nc2ccc3c(c2)OCO3)c1 | inconclusive: 10 µM [cytotoxic, partial curve] | 
Cc1nnc(N2CCC(C(=O)Nc3ccc(F)cc3)CC2)c2nn(-c3ccc(Cl)cc3)c(C)c12 | inconclusive: 0.0251 µM [cytotoxic, full curve, poor fit] | 
CCOC(=O)c1nc(S(C)(=O)=O)ncc1Cl | inconclusive: 20 µM [cytotoxic, single point] | 
C[C@@H]1OC(OC2CC[C@@]3(C)C(CC[C@@]4(C)C3CC=C3C5CC(C)(C)CC[C@]5(C(=O)OC5OCC(O)[C@@H](O)[C@@H]5OC5O[C@@H](C)[C@H](O[C@H]6OC(CO)C(O)C(O)C6O)C(O)C5O)C(O)C[C@@]34C)C2(C)C)C(O)C(O)[C@H]1OC1OCC(O)C(O)[C@H]1O (stereo not given in full) | inconclusive: 31.6 µM [cytotoxic, single point] | 
CCC(C)C(=O)N1CCc2cc(-c3csc(N)n3)ccc21 (stereo not given) | active: 12.6 µM | 
COc1ccc2c(c1)-c1nc(NC(=O)c3ccc(OC)c(Br)c3)sc1CC2 | inconclusive: 12.6 µM [cytotoxic, partial curve, poor fit] | 
Clc1ccccc1-c1nc(-c2cccnc2)no1 | active: 12.6 µM | 

Compound | Potency | activity change, negative = cell killing
Cc1cccc(-c2nc3ccccc3n2Cc2ccccc2)c1 | inconclusive: 20 µM [cytotoxic, single point] | 
CCC(=O)Nc1ccccc1-c1nc2ccccc2n(CC(=O)c2ccc(Cl)cc2)c1=O | inactive | 
CC(OC(=O)c1ccc2c(c1)C(=O)N(Cc1ccncc1)C2=O)C(=O)Nc1cccc(Cl)c1Cl (stereo not given) | inconclusive: 35.5 µM [cytotoxic, single point] | 
CCc1nnc(NC(=O)c2ccc(S(=O)(=O)N(CC(C)C)CC(C)C)cc2)o1 | active: 12.6 µM | 
COc1cccc(N2CCN(C(=O)C3Cc4ccccc4N3C(C)=O)CC2)c1 (stereo not given) | inactive | 
O=C(CCCn1c(=O)c2ccccc2n(Cc2cccc(Cl)c2)c1=O)NCCc1ccc(Cl)cc1 | inconclusive: 12.6 µM [cytotoxic, single point] | 
CCOC(=O)c1ccc(N2C(=O)c3n[nH]c(-c4ccco4)c3C2c2ccc(OCC)cc2)cc1 (stereo not given) | inconclusive: 12.6 µM [cytotoxic, single point] | 
COc1ccc(OC)c(Nc2cc(-c3ccccc3)nc(N)n2)c1 | inconclusive: 12.6 µM [cytotoxic, single point] | 
CC(C)OC(=O)CSc1nnc(-c2ccco2)n1N | inactive | 
Cc1cc(C)cc(OCCSc2nc(-c3ccc(C(C)(C)C)cc3)nc3cc(=O)[nH]n23)c1 | inconclusive: 20 µM [cytotoxic, single point] | 
COCn1c(-c2ccc(OC)cc2)nc2ccccc21 | active: 11.2 µM | 
COc1cccc(-c2cc(C(=O)Nc3ccc(F)cc3)[nH]n2)c1 | inconclusive: 1.26 µM [cytotoxic, partial curve] | 
CCNC(=O)c1ccc(-n2c(-c3ccccc3)cc3c2CCCCC3)cc1 | inconclusive: 5.62 µM [cytotoxic, single point] | 
Cc1c(C(=O)Nc2cccc(C(F)(F)F)c2)oc2ccc(S(=O)(=O)N(C)C3CCCCC3)cc12 | inconclusive: 0.0079 µM [cytotoxic, full curve] | 
COc1ncc2nc(C)c(=O)n(CCc3ccccc3)c2n1 | inactive | 
CSc1ccc2c(c1)[C@H](N1CCN(C)CC1)Cc1ccccc1S2 | active: 10 µM and active: 31.6 µM | 
CC(=O)N1CCCc2cc(S(=O)(=O)N(CC(C)C)CC(C)C)ccc21 | inactive | 
Cc1nn(Cc2ccccc2)c(Cl)c1C(=O)OCc1nnc(-c2ccccc2)o1 | inactive | 
Cc1c2cnn(CC(=O)NCc3ccc(F)cc3)c(=O)c2c(C)n1Cc1ccccc1Cl | inconclusive: 10 µM [cytotoxic, partial curve, poor fit] | 
O=C(O)CCCSc1ccccc1 |  | inactive: 16.7% [at 9.22 µM]
CCOc1ccc(NC(=O)C2CCCN(S(=O)(=O)c3ccc(Br)s3)C2)cc1 (stereo not given) | inactive | 

Source: PubChem BioAssay AID902 (National Center for Advancing Translational Sciences (NCATS), 2007)
